Drawing on the antibiotic and cytotoxicity screens of Wong et al. (2023), this text covers cytotoxicity call for eleven molecules.

Structures are written as SMILES. The list shows a part of the results.

This experiment deals with HSkMC (human skeletal muscle cells). Put plainly: cytotoxicity call (relative viability < 0.9). Particulars: 10 µM.
Consider `C[C@H](CO)N1C[C@H](C)[C@H](CN(C)Cc2ccc(C(F)(F)F)cc2)Oc2ccc(NC(=O)Nc3ccc(C(F)(F)F)cc3)cc2CC1=O`, for which the cytotoxicity call is “active”.

In the case of `CC(C)NC(=O)Nc1cccc2c1O[C@@H](CN(C)C(=O)Nc1ccc3c(c1)OCO3)[C@@H](C)CN([C@H](C)CO)C2=O`, the cytotoxicity call is “inactive”.

In the case of `C[C@@H]1CN([C@@H](C)CO)C(=O)c2c(c3ccccc3n2C)-c2ccccc2CO[C@H]1CN(C)CC1CCCCC1`, the cytotoxicity call is “inactive”.

In the case of `C[C@H](CO)N1C[C@H](C)[C@@H](CN(C)S(C)(=O)=O)Oc2ccc(NS(=O)(=O)c3ccccc3)cc2CC1=O`, the cytotoxicity call is “inactive”.

As for `COc1cccc(NC(=O)N(C)C[C@H]2Oc3ncc(C#Cc4ccncc4)cc3C(=O)N([C@H](C)CO)C[C@H]2C)c1`, the cytotoxicity call was “inactive”.

As to `NCC[C@H]1CC[C@H](NC(=O)Cc2ccncc2)[C@@H](CO)O1`, the cytotoxicity call is “inactive”.

As to `Cc1noc(C)c1NC(=O)N(C)C[C@@H]1Oc2ccc(NC(=O)C3CC3)cc2C(=O)N([C@@H](C)CO)C[C@@H]1C`, the cytotoxicity call was “inactive”.

Regarding `COc1ccc(S(=O)(=O)N2C[C@H](O)COC[C@H]3O[C@H](CC(=O)NCCN4CCCCC4)CC[C@@H]32)cc1`, the cytotoxicity call is “inactive”.

`COc1ccc(CN(C)C[C@@H]2OCCCC[C@H](C)Oc3ccc(NC(=O)Nc4cccc5ccccc45)cc3C(=O)N([C@@H](C)CO)C[C@@H]2C)cc1`: the cytotoxicity call is “active”.

`C[C@@H]1CN([C@@H](C)CO)C(=O)c2cc(NC(=O)NC3CCCCC3)ccc2O[C@@H](C)CCCCO[C@@H]1CN(C)C(=O)Nc1ccc2c(c1)OCO2`: the cytotoxicity call was “inactive”.

For the molecule `Cc1noc(C)c1NC(=O)Nc1ccc2c(c1)C(=O)N([C@@H](C)CO)C[C@@H](C)[C@H](CN(C)S(=O)(=O)c1cccs1)OCCCC[C@H](C)O2`, the cytotoxicity call was “inactive”.
